Data: article PMC6212790
Some of the results follow. At the low end of the ranking the order means little.

The sequences below were run against T1, GST-Rok (full length) (UniProt O34857) (assay: protein binding microarray). Conditions: Rok is a gene silencer of Bacillus subtilis; high values mean tight binding; most listed sequences are background and not binding sites; double strand, one strand shown.
T1 sequence: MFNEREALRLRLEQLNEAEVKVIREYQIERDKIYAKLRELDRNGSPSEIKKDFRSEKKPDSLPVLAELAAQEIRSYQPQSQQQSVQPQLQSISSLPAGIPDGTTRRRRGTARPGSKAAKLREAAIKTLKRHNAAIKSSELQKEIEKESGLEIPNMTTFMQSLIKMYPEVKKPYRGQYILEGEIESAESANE
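Further: rank score from −0.5 (least bound) to 0.5 (best bound).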

| Sequence | binding signal [E-score] |
| --- | --- |
| CCAGCCGG | -0.309 |
| ACCTAGCG | 0.0946 |
| ACAGCCTA | 0.0438 |
| ATTGGCCG | -0.208 |
| ACGAGCAT | 0.0943 |
| GCGTATAC | 0.143 |
| CTACAGCA | 0.152 |
| AAAATCCG | -0.022 |
| GATAGAAC | 0.278 |
| CGCTACCA | 0.2 |
| ATGATTTC | 0.0874 |
| AAGATAAG | 0.0733 |
| ACATATGG | 0.168 |
| GGTGCAGA | -0.161 |
| CCCCTTCA | -0.312 |
| AAGTCGAC | -0.0979 |
| ACTATCAG | 0.141 |
| ATGGTGTG | 0.0504 |
| GACAATGC | -0.153 |
| AAAGGTTG | -0.0391 |
| AGATGACC | -0.00541 |
| GCGCTCAA | -0.23 |
| ATAGTTCA | 0.218 |
| GGATCTAC | 0.306 |
| AACACACT | 0.215 |

| Sequence | binding signal [E-score] |
| --- | --- |
| AGTGTCAC | -0.00213 |
| ACCACGAT | -0.0297 |
| GCGGAAGA | -0.163 |
| AGAGACCG | -0.191 |
| ACCCTTAG | -0.136 |
| CCACTCCG | -0.204 |
| CTAGTTAA | 0.349 |
| CTACTCAG | 0.0772 |
| ATTTGAAG | 0.0614 |
| CAGGGAAG | -0.266 |
| GTCGAAGA | -0.157 |
| CCCAGCGG | -0.336 |
| GGATGAAA | 0.0855 |
| CAATCTCG | 0.0723 |
| TAAAGTCA | 0.0321 |
| ATTGACAG | 0.0684 |
| CAGAGGAA | -0.105 |
| GCGCGAAC | 0.0168 |
| GAGACGAA | 0.0613 |
| AACGTGGA | 0.0997 |
| TGACAGCA | -0.106 |
| ATTATACA | 0.363 |
| ATAGCGCC | 0.0199 |
| AACTAAAG | -0.0498 |
| CCTGAGAC | -0.355 |

| Sequence | binding signal [E-score] |
| --- | --- |
| TGGGCCAA | -0.309 |
| GCCAAAAC | -0.0966 |
| ATGAAGCC | -0.182 |
| TGAAAGAA | 0.145 |
| GTAAAAGA | 0.207 |
| CGCGTACA | -0.0503 |
| AGCAGCAC | -0.0929 |
| AAGACCGA | -0.347 |
| AGTCTCCC | -0.201 |
| CACAACAA | 0.0872 |
| AAAAGAGT | -0.0171 |
| GCCCCTAA | -0.324 |
| AACGTACC | 0.0773 |
| GCCCATGA | -0.174 |
| ATCCGCAG | -0.0663 |
| AAGACGGC | -0.159 |
| CAGGACGA | -0.29 |
| ATTTGATC | 0.213 |
| ATCAGCTA | 0.0949 |
| GAAAAGGA | -0.0603 |
| ACACTGGC | -0.124 |
| AAGAGTCG | -0.139 |
| CCTACGCG | -0.168 |
| CGAATAAG | -0.00303 |
| AAACGAGA | 0.0318 |

| Sequence | binding signal [E-score] |
| --- | --- |
| CCGTAATC | -0.114 |
| CCAATAGA | 0.0455 |
| ACACAAGC | -0.0939 |
| ACTGGCCC | -0.235 |
| AGGCACCT | -0.166 |
| ATCCTAGC | 0.0957 |
| AACTACCA | 0.432 |
| CAGAAGGC | -0.174 |
| GCCACGCC | -0.385 |
| AGCACTTA | -0.0246 |
| ATATACCG | 0.385 |
| AGCCGCCT | -0.236 |
| GTGGCTTA | -0.247 |
| AGTTCTGC | 0.0876 |
| ATCCGATG | 0.0514 |
| CACAGGCG | -0.263 |
| CCAGGCTA | -0.0835 |
| CGTGCCGC | -0.244 |
| TCGTAACA | -0.047 |
| ATGCACTC | -0.11 |
| CTTGCTGA | -0.0525 |
| AATCTGCC | 0.0619 |
| GGAGAGTA | -0.109 |
| CAGCAGGA | -0.163 |
| AGCATGTC | 0.0983 |

| Sequence | binding signal [E-score] |
| --- | --- |
| AAGCTCCT | -0.222 |
| ACGTAAAC | 0.0563 |
| GCTTCCAC | -0.251 |
| CGGCATAG | -0.182 |
| CAAGCGAC | -0.133 |
| CGAATCCA | 0.0813 |
| CCTTCGGA | -0.282 |
| GCGGATAC | 0.117 |
| ATTCGTTA | 0.228 |
| ACGATGCG | -0.234 |
| CTGCATGA | -0.128 |
| GTGATAAA | 0.22 |
| ATATCCGG | 0.237 |
| AGCGGCGG | -0.181 |
| ACCGTTTG | 0.102 |
| ATTTCGTG | 0.133 |
| AGTGGAGG | -0.0535 |
| AAACCCTC | -0.202 |
| CAATACAG | -0.06 |
| AACGAGCT | -0.281 |
| AGCCGACT | -0.0879 |
| CTTTTGAC | -0.0495 |
| AAGTTAGT | 0.285 |
| CCTTTACA | -0.043 |
| AATTACCT | 0.357 |

| Sequence | binding signal [E-score] |
| --- | --- |
| AAACGTTC | 0.0262 |
| GTCGCCAA | -0.178 |
| AGATTCCA | 0.00642 |
| CAAACACC | -0.0777 |
| ACGGAGAG | -0.253 |
| CAACTTTA | 0.0585 |
| CTCCTCCC | -0.338 |
| CATTTTCA | -0.0649 |
| CCACCAGA | -0.259 |
| CAGCGTCC | -0.262 |
| CTCGGTTC | -0.22 |
| CACTCCGC | -0.146 |
| CCGGCTTA | -0.156 |
| AAATAGCT | 0.379 |
| CTGCGCTC | -0.324 |
| GGTGATAC | 0.115 |
| CCACTTGA | 0.0133 |
| AGTGCCGC | -0.112 |
| ATCGATTG | 0.135 |
| CGTATAGC | 0.139 |
| AACGCGAA | 0.0271 |
| GATCTTGA | 0.0464 |
| AGAATAGG | -0.105 |
| ATTGGTTG | 0.0567 |
| CAACCCAG | -0.294 |

| Sequence | binding signal [E-score] |
| --- | --- |
| AGTTGTAT | 0.263 |
| CCTTGCTC | -0.154 |
| AGCACTAC | 0.0734 |
| CCGCTCAC | -0.126 |
| CAGTTTTA | 0.177 |
| CTTATGCC | -0.123 |
| TGCTCCCA | -0.121 |
| AACGGACC | -0.202 |
| AGAAACCG | 0.0282 |
| CATCAGAA | -0.0234 |
| AACAAAGC | 0.0723 |
| TAGTGACA | 0.152 |
| GTGTTAGA | 0.122 |
| AAACCAGT | -0.095 |
| CTCGACAC | -0.0782 |
| ACAGGTAG | 0.0614 |
| CAGTGAGA | -0.0231 |
| ACTTGGAA | 0.18 |
| AGTGCTAA | 0.159 |
| AGTAACTA | 0.421 |
| ATGAGCTA | 0.199 |
| GCTGAAAC | -0.111 |
| AGTCATTG | -0.00897 |
| ACCGCATC | -0.0255 |
| CAGCTGAG | -0.123 |

| Sequence | binding signal [E-score] |
| --- | --- |
| AGTAGAGA | 0.265 |
| TGGGCAAA | -0.0755 |
| CGTTTAGC | 0.0496 |
| ATTGACAC | 0.00272 |
| CGGAGCAC | -0.28 |
| AATTTATG | 0.283 |
| ACCATCCA | 0.106 |
| GGCAATAC | -0.0437 |
| TCTGCACA | -0.113 |
| CCACCCAC | -0.049 |
| GATAACAC | 0.273 |
| CTTCGTGA | 0.0399 |
| TACCAAAA | 0.165 |
| AAGTCTTC | 0.00857 |
| AGATGACG | -0.0754 |
| ATATTGCG | 0.0933 |
| CGTAGTCA | -0.185 |
| CACGGCCG | -0.15 |
| GGCTTCCC | -0.407 |
| CACAGTTA | 0.147 |
| ACATCACA | 0.0131 |
| AGGCCAGA | -0.179 |
| AAAATTCA | 0.0405 |
| GGCCGTAC | -0.149 |
| CACCGCGC | -0.13 |

| Sequence | binding signal [E-score] |
| --- | --- |
| GACGTGTA | 0.0526 |
| ATTGAGAG | -0.127 |
| AATGCTGC | -0.0901 |
| AATAACAG | 0.127 |
| ATGTCCTG | -0.128 |
| CCCGCTAC | -0.221 |
| ACAAATGA | 0.0302 |
| GCTTATCC | -0.18 |
| GCGTATGA | 0.289 |
| GGAGGCAA | -0.0319 |
| ATAAACGC | 0.0517 |
| ATATTTGG | 0.0495 |
| ACCCCCGC | -0.314 |
| CCTACCTC | 0.0499 |
| GAAGGAGA | -0.104 |
| ATCGAGAC | -0.197 |
| GAGGCGCC | -0.384 |
| AATGGCCA | -0.0589 |
| CACTGTTC | -0.0185 |
